This note sets out measurements from article PMC9911399, “Two distinct binding modes provide the RNA-binding protein RbFox with extraordinary sequence specificity”.

Substitutions are numbered along the chain they refer to; changes in the protein carry UniProt numbers. Some of the results follow.

First the molecules themselves.
B1: GAGAGGA (DNA:RNA)
RNA: GGGAGACCGGAAUUCAGAUUGUCCGAGAGGAUUAAAUCCCGUCGUAGCCACCA
DNA 1: CAATCTGAATTCCGGTCTCCC
DNA 2: TGGTGGCTACGACGGGATT
B2: CCCGUUC (DNA:RNA)
RNA: GGGAGACCGGAAUUCAGAUUGUCCCCCGUUCUUAAAUCCCGUCGUAGCCACCA
DNA 1: CAATCTGAATTCCGGTCTCCC
DNA 2: TGGTGGCTACGACGGGATT
B3: AGAACGC (DNA:RNA)
RNA: B1 RNA with G25A, A26G, G27A, G29C, A31C
DNA 1: CAATCTGAATTCCGGTCTCCC
DNA 2: TGGTGGCTACGACGGGATT
B4: CCGAACA (DNA:RNA)
RNA: B1 RNA with G25C, A26C, G29A, G30C
DNA 1: CAATCTGAATTCCGGTCTCCC
DNA 2: TGGTGGCTACGACGGGATT
B5: CUCGGUG (DNA:RNA)
RNA: B2 RNA with C26U, U29G, C31G
DNA 1: CAATCTGAATTCCGGTCTCCC
DNA 2: TGGTGGCTACGACGGGATT
B6: GUUAUGA (DNA:RNA)
RNA: B1 RNA with A26U, G27U, G29U
DNA 1: CAATCTGAATTCCGGTCTCCC
DNA 2: TGGTGGCTACGACGGGATT
B7: GUAGCCA (DNA:RNA)
RNA: B1 RNA with A26U, G27A, A28G, G29C, G30C
DNA 1: CAATCTGAATTCCGGTCTCCC
DNA 2: TGGTGGCTACGACGGGATT
B8: AAGGAAC (DNA:RNA)
RNA: B2 RNA with C25A, C26A, C27G, U29A, U30A
DNA 1: CAATCTGAATTCCGGTCTCCC
DNA 2: TGGTGGCTACGACGGGATT
B9: UUCCUUA (DNA:RNA)
RNA: B2 RNA with C25U, C26U, G28C, C31A
DNA 1: CAATCTGAATTCCGGTCTCCC
DNA 2: TGGTGGCTACGACGGGATT
B10: CAUAUAC (DNA:RNA)
RNA: B2 RNA with C26A, C27U, G28A, U30A
DNA 1: CAATCTGAATTCCGGTCTCCC
DNA 2: TGGTGGCTACGACGGGATT
B11: UGCCAGG (DNA:RNA)
RNA: B2 RNA with C25U, C26G, G28C, U29A, U30G, C31G
DNA 1: CAATCTGAATTCCGGTCTCCC
DNA 2: TGGTGGCTACGACGGGATT
B12: GGAGAAU (DNA:RNA)
RNA: B2 RNA with C25G, C26G, C27A, U29A, U30A, C31U
DNA 1: CAATCTGAATTCCGGTCTCCC
DNA 2: TGGTGGCTACGACGGGATT
B13: CCAUUUG (DNA:RNA)
RNA: B2 RNA with C27A, G28U, C31G
DNA 1: CAATCTGAATTCCGGTCTCCC
DNA 2: TGGTGGCTACGACGGGATT
B14: ACCUGAG (DNA:RNA)
RNA: B2 RNA with C25A, G28U, U29G, U30A, C31G
DNA 1: CAATCTGAATTCCGGTCTCCC
DNA 2: TGGTGGCTACGACGGGATT
B15: UCCCCGU (DNA:RNA)
RNA: B2 RNA with C25U, G28C, U29C, U30G, C31U
DNA 1: CAATCTGAATTCCGGTCTCCC
DNA 2: TGGTGGCTACGACGGGATT
B16: CGUCACU (DNA:RNA)
RNA: B2 RNA with C26G, C27U, G28C, U29A, U30C, C31U
DNA 1: CAATCTGAATTCCGGTCTCCC
DNA 2: TGGTGGCTACGACGGGATT
B17: UGGUAGG (DNA:RNA)
RNA: B1 RNA with G25U, A26G, A28U, G29A, A31G
DNA 1: CAATCTGAATTCCGGTCTCCC
DNA 2: TGGTGGCTACGACGGGATT
B18: CAGGGCU (DNA:RNA)
RNA: B1 RNA with G25C, A28G, G30C, A31U
DNA 1: CAATCTGAATTCCGGTCTCCC
DNA 2: TGGTGGCTACGACGGGATT
B19: CCUCAAA (DNA:RNA)
RNA: B2 RNA with C27U, G28C, U29A, U30A, C31A
DNA 1: CAATCTGAATTCCGGTCTCCC
DNA 2: TGGTGGCTACGACGGGATT
B20: AGCUUCA (DNA:RNA)
RNA: B2 RNA with C25A, C26G, G28U, U30C, C31A
DNA 1: CAATCTGAATTCCGGTCTCCC
DNA 2: TGGTGGCTACGACGGGATT
B21: UAUUUGC (DNA:RNA)
RNA: B2 RNA with C25U, C26A, C27U, G28U, U30G
DNA 1: CAATCTGAATTCCGGTCTCCC
DNA 2: TGGTGGCTACGACGGGATT
B22: GUCUAAU (DNA:RNA)
RNA: B2 RNA with C25G, C26U, G28U, U29A, U30A, C31U
DNA 1: CAATCTGAATTCCGGTCTCCC
DNA 2: TGGTGGCTACGACGGGATT
B23: UCGGUAU (DNA:RNA)
RNA: B2 RNA with C25U, C27G, U30A, C31U
DNA 1: CAATCTGAATTCCGGTCTCCC
DNA 2: TGGTGGCTACGACGGGATT
B24: AGUCACC (DNA:RNA)
RNA: B2 RNA with C25A, C26G, C27U, G28C, U29A, U30C
DNA 1: CAATCTGAATTCCGGTCTCCC
DNA 2: TGGTGGCTACGACGGGATT
B25: CCUCCUC (DNA:RNA)
RNA: B2 RNA with C27U, G28C, U29C
DNA 1: CAATCTGAATTCCGGTCTCCC
DNA 2: TGGTGGCTACGACGGGATT
B26: CAUUGGG (DNA:RNA)
RNA: B1 RNA with G25C, G27U, A28U, A31G
DNA 1: CAATCTGAATTCCGGTCTCCC
DNA 2: TGGTGGCTACGACGGGATT
B27: GCGUGAC (DNA:RNA)
RNA: B1 RNA with A26C, A28U, G30A, A31C
DNA 1: CAATCTGAATTCCGGTCTCCC
DNA 2: TGGTGGCTACGACGGGATT
B28: GACCCUC (DNA:RNA)
RNA: B2 RNA with C25G, C26A, G28C, U29C
DNA 1: CAATCTGAATTCCGGTCTCCC
DNA 2: TGGTGGCTACGACGGGATT
B29: UUCAGGA (DNA:RNA)
RNA: B1 RNA with G25U, A26U, G27C
DNA 1: CAATCTGAATTCCGGTCTCCC
DNA 2: TGGTGGCTACGACGGGATT
B30: CAUUACG (DNA:RNA)
RNA: B2 RNA with C26A, C27U, G28U, U29A, U30C, C31G
DNA 1: CAATCTGAATTCCGGTCTCCC
DNA 2: TGGTGGCTACGACGGGATT
B31: UACCCCU (DNA:RNA)
RNA: B2 RNA with C25U, C26A, G28C, U29C, U30C, C31U
DNA 1: CAATCTGAATTCCGGTCTCCC
DNA 2: TGGTGGCTACGACGGGATT

For this experiment, the target named is T1, RBFOX1 RRM RbFoxmut (Fox-RRM*) (Homo sapiens, UniProt Q9NWB1 109-208, R118D;E147R;N151S;E152T).
T1 sequence: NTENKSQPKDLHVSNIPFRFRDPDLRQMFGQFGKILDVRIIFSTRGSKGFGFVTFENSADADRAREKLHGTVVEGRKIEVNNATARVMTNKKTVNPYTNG
The experiment can be described thus: EMSA; HiTS-Eq, 1 nM pool, 10 min; buffer printed only for the single-RNA assays: 10 mM Tris pH 7.5, 150 mM NaCl, 3.4 mM EDTA, 0.001% NP-40, 30 C. Conditions: tags: His6 N-terminal (pET28a); label: 5' 32P. In outline:
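These values rest on relative association constants, computed from read-count changes of each RNA species versus the control reaction and normalised to the cognate motif. Reads came from free RNA recovered by 8% native PAGE after purified RbFox RRM (wild type or mutant) at increasing concentrations was equilibrated for 10 min in 50 µL with 1 nM of a 5′-radiolabelled pool with 7 randomized nucleotides and DNA-annealed flanks.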
As to B1, the binding signal is 0.0596 KA relative to UGCAUGU.

For the molecule B2, the binding signal was 0.0759 KA relative to UGCAUGU.

In the case of B3, the binding signal was 0.0935 KA relative to UGCAUGU.

With B4, the binding signal was 0.0887 KA relative to UGCAUGU.

With B5, the binding signal was 0.115 KA relative to UGCAUGU.

Consider B6, for which the binding signal was 0.206 KA relative to UGCAUGU.

Regarding B7, the binding signal is 0.082 KA relative to UGCAUGU.

As for B8, the binding signal is 0.057 KA relative to UGCAUGU.

In the case of B9, the binding signal was 0.0974 KA relative to UGCAUGU.

For the molecule B10, the binding signal was 0.105 KA relative to UGCAUGU.

For the molecule B11, the binding signal is 0.0858 KA relative to UGCAUGU.

For B12, the binding signal is 0.0906 KA relative to UGCAUGU.

On to B13, for which the binding signal is 0.0952 KA relative to UGCAUGU.

Consider B14, for which the binding signal was 0.0813 KA relative to UGCAUGU.

On to B15, for which the binding signal was 0.104 KA relative to UGCAUGU.

Take B16: the binding signal was 0.0853 KA relative to UGCAUGU.

For the molecule B17, the binding signal was 0.103 KA relative to UGCAUGU.

As for B18, the binding signal is 0.0959 KA relative to UGCAUGU.

Turning to B19, the binding signal is 0.0862 KA relative to UGCAUGU.

Take B20: the binding signal is 0.121 KA relative to UGCAUGU.

On to B21, for which the binding signal is 0.127 KA relative to UGCAUGU.

Take B22: the binding signal is 0.109 KA relative to UGCAUGU.

For B23, the binding signal was 0.129 KA relative to UGCAUGU.

Consider B24, for which the binding signal was 0.0525 KA relative to UGCAUGU.

On to B25, for which the binding signal is 0.0903 KA relative to UGCAUGU.

Turning to B26, the binding signal is 0.067 KA relative to UGCAUGU.

Turning to B27, the binding signal was 0.09 KA relative to UGCAUGU.

B28: the binding signal is 0.0597 KA relative to UGCAUGU.

For B29, the binding signal was 0.0766 KA relative to UGCAUGU.

Turning to B30, the binding signal was 0.144 KA relative to UGCAUGU.

Regarding B31, the binding signal is 0.0779 KA relative to UGCAUGU.
